Source: the supplement of paper PMC8728848
The list shows a part of the results.

Experiments:
Assay in all cases: glycan array binding signal (z-score within array); higher = stronger binding
Conditions in all cases: glycan notation: IUPAC condensed, linker removed; mutation: Y228W
[1] = target: Gal(b1-4)GalNAc(b1-3)[Fuc(a1-2)]Gal(b1-4)GlcNAc
Outline: (§1)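 Glycan array data came from 3228 arrays in the Consortium for Functional Glycomics database, and only arrays with an available protein sequence were kept. Glycan names were put into IUPAC-condensed notation, and columns mapping to the same glycan were averaged. The binding signal is a within-array Z-score, averaged across arrays of one protein sequence run at different concentrations or buffers and across linkers. A negative Z-score can be read as non-binding.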

Gal(b1-4)Glc = target: Gal(b1-4)Glc
Outline: as §1

Gal(b1-4)Glc6S = target: Gal(b1-4)Glc6S
Outline: as §1

Gal(b1-4)GlcNAc = target: Gal(b1-4)GlcNAc
Outline: as §1

[2] = target: Gal(b1-4)GlcNAc(a1-6)Gal(b1-4)GlcNAc
Outline: as §1

Gal(b1-4)GlcNAc(b1-2)Man = target: Gal(b1-4)GlcNAc(b1-2)Man
Outline: as §1

[3] = target: Gal(b1-4)GlcNAc(b1-2)Man(a1-3)Man(b1-4)GlcNAc(b1-4)GlcNAc
Outline: as §1

[4] = target: Gal(b1-4)GlcNAc(b1-2)Man(a1-3)[Gal(b1-4)GlcNAc(b1-2)Man(a1-6)]Man(b1-4)GlcNAc(b1-4)GlcNAc
Outline: as §1

[5] = target: Gal(b1-4)GlcNAc(b1-2)Man(a1-3)[Gal(b1-4)GlcNAc(b1-2)Man(a1-6)]Man(b1-4)GlcNAc(b1-4)[Fuc(a1-6)]GlcNAc
Outline: as §1

[6] = target: Gal(b1-4)GlcNAc(b1-2)Man(a1-3)[Gal(b1-4)GlcNAc(b1-2)Man(a1-6)][Gal(b1-4)GlcNAc(b1-4)]Man(b1-4)GlcNAc(b1-4)[Fuc(a1-6)]GlcNAc
Outline: as §1

[7] = target: Gal(b1-4)GlcNAc(b1-2)Man(a1-3)[Gal(b1-4)GlcNAc(b1-2)Man(a1-6)][GlcNAc(b1-4)]Man(b1-4)GlcNAc(b1-4)[Fuc(a1-6)]GlcNAc
Outline: as §1

[8] = target: Gal(b1-4)GlcNAc(b1-2)Man(a1-3)[GlcNAc(b1-2)Man(a1-6)]Man(b1-4)GlcNAc(b1-4)GlcNAc
Outline: as §1

[9] = target: Gal(b1-4)GlcNAc(b1-2)Man(a1-3)[GlcNAc(b1-4)][Gal(b1-4)GlcNAc(b1-2)Man(a1-6)]Man(b1-4)GlcNAc(b1-4)GlcNAc
Outline: as §1

[10] = target: Gal(b1-4)GlcNAc(b1-2)Man(a1-3)[Man(a1-6)]Man(b1-4)GlcNAc(b1-4)GlcNAc
Outline: as §1

[11] = target: Gal(b1-4)GlcNAc(b1-2)Man(a1-6)Man(b1-4)GlcNAc(b1-4)GlcNAc
Outline: as §1

[12] = target: Gal(b1-4)GlcNAc(b1-2)Man(a1-6)[GlcNAc(b1-2)Man(a1-3)]Man(b1-4)GlcNAc(b1-4)GlcNAc
Outline: as §1

[13] = target: Gal(b1-4)GlcNAc(b1-2)Man(a1-6)[Man(a1-3)]Man(b1-4)GlcNAc(b1-4)GlcNAc
Outline: as §1

[14] = target: Gal(b1-4)GlcNAc(b1-2)[Gal(b1-4)GlcNAc(b1-4)]Man(a1-3)[Gal(b1-4)GlcNAc(b1-2)Man(a1-6)]Man(b1-4)GlcNAc(b1-4)GlcNAc
Outline: as §1

[15] = target: Gal(b1-4)GlcNAc(b1-2)[Gal(b1-4)GlcNAc(b1-4)]Man(a1-3)[Gal(b1-4)GlcNAc(b1-2)[Gal(b1-4)GlcNAc(b1-6)]Man(a1-6)]Man(b1-4)GlcNAc(b1-4)GlcNAc
Outline: as §1

[16] = target: Gal(b1-4)GlcNAc(b1-2)[Gal(b1-4)GlcNAc(b1-4)]Man(a1-3)[GlcNAc(b1-4)][Gal(b1-4)GlcNAc(b1-2)Man(a1-6)]Man(b1-4)GlcNAc(b1-4)GlcNAc
Outline: as §1

[17] = target: Gal(b1-4)GlcNAc(b1-2)[Gal(b1-4)GlcNAc(b1-4)]Man(a1-3)[GlcNAc(b1-4)][Gal(b1-4)GlcNAc(b1-2)[Gal(b1-4)GlcNAc(b1-6)]Man(a1-6)]Man(b1-4)GlcNAc(b1-4)GlcNAc
Outline: as §1

[18] = target: Gal(b1-4)GlcNAc(b1-2)[Gal(b1-4)GlcNAc(b1-6)]Man(a1-6)[Gal(b1-4)GlcNAc(b1-2)Man(a1-3)]Man(b1-4)GlcNAc(b1-4)GlcNAc
Outline: as §1

[19] = target: Gal(b1-4)GlcNAc(b1-2)[Gal(b1-4)GlcNAc(b1-6)]Man(a1-6)[Gal(b1-4)GlcNAc(b1-2)Man(a1-3)]Man(b1-4)GlcNAc(b1-4)[Fuc(a1-6)]GlcNAc
Outline: as §1

[20] = target: Gal(b1-4)GlcNAc(b1-2)[Gal(b1-4)GlcNAc(b1-6)]Man(a1-6)[GlcNAc(b1-4)][Gal(b1-4)GlcNAc(b1-2)Man(a1-3)]Man(b1-4)GlcNAc(b1-4)GlcNAc
Outline: as §1

[21] = target: Gal(b1-4)GlcNAc(b1-2)[Gal(b1-4)GlcNAc(b1-6)]Man(a1-6)[GlcNAc(b1-4)][Gal(b1-4)GlcNAc(b1-2)[Gal(b1-4)GlcNAc(b1-4)]Man(a1-3)]Man(b1-4)GlcNAc(b1-4)[Fuc(a1-6)]GlcNAc
Outline: as §1

[22] = target: Gal(b1-4)GlcNAc(b1-3)Gal(b1-3)GalNAc
Outline: as §1

[23] = target: Gal(b1-4)GlcNAc(b1-3)Gal(b1-3)GlcNAc
Outline: as §1

[24] = target: Gal(b1-4)GlcNAc(b1-3)Gal(b1-4)Glc
Outline: as §1

[25] = target: Gal(b1-4)GlcNAc(b1-3)Gal(b1-4)GlcNAc
Outline: as §1

[26] = target: Gal(b1-4)GlcNAc(b1-3)Gal(b1-4)GlcNAc(b1-2)Man(a1-3)[Gal(b1-4)GlcNAc(b1-3)Gal(b1-4)GlcNAc(b1-2)Man(a1-6)]Man(b1-4)GlcNAc(b1-4)GlcNAc
Outline: as §1

B1: Epa1-NP-mutant-Y228W (Candida glabrata), Q6VBJ0 (protein)
chain: MILNPALFLNKCVCIYTTLILLLLTNGGYATSSNDISLASKDPTTFPLGCSPDITTPKKGLSMELYSYDFRKKGSYPCWDAAYLDPNYPRTGYKSHRLLAKVDGVTGNINFYYHATKGCTPQLGHLPASYNYPKPLTMTNFTMLLYGYFRPKVTGFHTFTISADDLLFVNFGAGNAFDCCRRDSSADHFGNYQAYAIWGSKTAKDELTVHLDAGVYYPIRLFYNNREWDGALSFTFKTESNENTVSDFSEYFFSLDDTEEGCPGLISYDSSCASVKTSKIIGIDYHTETPNENLVPITKTIYHLGIPCTGTTTTPLCGSGFYDPLANKCVTINTSSTSSVTKTTSHTTSKEVSFHSSISSQKTLIPKSIPSPYGPIKSQSIPTEMETSSEISSSEYAFSDVISTPSHSPYTKKHSSLNSSSYTSTVIHSLTSYSISQGIFSTSLSEQNITSKSSTDKFSTATSMSNNITQSSIIISQFSTNNENYTTTSMHTSSDKISTETLNNSISTTTSILFSNSSTILKNNTTIISSDKDTHYHPVNPTIVCSTNKTEIICASITQPSISNSNNHWSSSVLKFNSTTVRSTLPSSAGSNETSINVPFSSSTESNTSTSSTSTSNSKMVRSTLPSSAGSNETSISVPFSSSTESNTSTSSTSTSNSKMVRSTLPSSAGSNETSINVPFSSSTESNTSTSSTSTSNSKTVRSTPFSSAGIIMTSLSQRNNKSASSYASSNSKCYNTADSCRKVHSTPSYLLTSSYTSEGVDYDCSLVSTKLKINDTNCVNNKHTTKSCLKTSVTTTIPTLEIKTARKSSSNTIGLHSYPTSSPNKSISSAPIIGYISSFKTIKTASPSYQTSDLTTITTITSLNNPGSTAVENTHESNDKSRKTSSNDISSKHSVIKETKDAVESSNKSHQTNTLKCSSIIIASSSHNSYESLGGTTLTLTLSKVYSPQNNDTLPFLEISEVNPSRTVLPESSKMMQYLTSTEERNKTARNTIATNIVSISTFHFEGEGNAIRMGYTQLLLMLIGIIVMNIGT
[1]
  glycan array binding signal (z-score): -0.075
Gal(b1-4)Glc
  glycan array binding signal (z-score): -0.312
Gal(b1-4)Glc6S
  glycan array binding signal (z-score): 0.17
Gal(b1-4)GlcNAc
  glycan array binding signal (z-score): 0.01
[2]
  glycan array binding signal (z-score): 3.19
Gal(b1-4)GlcNAc(b1-2)Man
  glycan array binding signal (z-score): -0.121
[3]
  glycan array binding signal (z-score): -0.231
[4]
  glycan array binding signal (z-score): 0.353
[5]
  glycan array binding signal (z-score): 0.093
[6]
  glycan array binding signal (z-score): -0.314
[7]
  glycan array binding signal (z-score): -0.241
[8]
  glycan array binding signal (z-score): -0.222
[9]
  glycan array binding signal (z-score): -0.226
[10]
  glycan array binding signal (z-score): -0.183
[11]
  glycan array binding signal (z-score): 0.003
[12]
  glycan array binding signal (z-score): -0.486
[13]
  glycan array binding signal (z-score): -0.17
[14]
  glycan array binding signal (z-score): 0.858
[15]
  glycan array binding signal (z-score): 0.937
[16]
  glycan array binding signal (z-score): -0.126
[17]
  glycan array binding signal (z-score): 0.196
[18]
  glycan array binding signal (z-score): 0.422
[19]
  glycan array binding signal (z-score): 0.722
[20]
  glycan array binding signal (z-score): -0.205
[21]
  glycan array binding signal (z-score): 0.2
[22]
  glycan array binding signal (z-score): -0.229
[23]
  glycan array binding signal (z-score): -0.281
[24]
  glycan array binding signal (z-score): -0.195
[25]
  glycan array binding signal (z-score): -0.236
[26]
  glycan array binding signal (z-score): 0.392
